About 540 (0.36%) of roughly 150,000 compounds showed an effect of 50% or more. Some of the results follow.
tested on: Plasmodium falciparum; test: Primary screen in NF54 nanoGlo assay, in single point, at 2uM, 72h; a lower Z score goes with more inhibition; type: functional, Erythrocyte; conditions: timepoint 72 hour

SMILES	% Inhibition	Z score
Cc1ccc(-c2csc(NC(=O)CN3CCN(Cc4ccc(F)cc4Cl)CC3)n2)cc1C	-19%	2.04
Cc1ncsc1CCC(=O)N1CCC([C@@H](O)CCc2ccccc2)CC1	-11%	2.28
Cc1cccc(NS(=O)(=O)[C@H]2CCS(=O)(=O)C2)c1C	-5%	0.54
O=C(CCOc1ccccc1)N1C[C@@H]2CC[C@H]1CN(Cc1ccccn1)C2	0%	-0.03
CCCC1CCCCC1NC(=O)Cc1nnc(C2CCOCC2)[nH]1 (stereo unspecified)	8%	-0.9
O=C(N[C@H]1CCN(C2CCC2)C1=O)c1cc(F)cc2ccoc12	-4%	0.51
COc1ccc([C@H]2C[C@@H]2CC(=O)Nc2n[nH]c(C)c2-c2cccc(Cl)c2)cc1	2%	-0.29
CCCN1C[C@@H](NS(=O)(=O)c2cnn(CC)c2)CC1=O	-4%	0.45
COc1ccc(N2CC3(CCN(C(=O)OCc4ccccc4)CC3)OC2=O)cc1OC	-7%	1.09
CCc1ccc([C@@H]2CCCCCN2Cc2nnc(C3CC3)o2)o1	-2%	0.24
CCc1cc(NCCCc2c(C)n[nH]c2C)ncn1	-2%	0.41
CC(C)N1CCC(N2CCC[C@H](C(=O)NCCc3ccccc3F)C2)CC1	2%	-0.29
Cc1ccnc(NC(=O)c2ccc(-c3ccccc3)cc2)n1	-3%	0.3
O=C(N[C@H]1CCN(c2nccs2)C1)c1ccncc1	-11%	2.12
Cc1ccc(CN(Cc2ccccc2)Cc2nc(C(=O)NCCc3ccccn3)co2)c(C)c1	-13%	2.5
N#Cc1ccccc1OCC(=O)OCCN1CCCC1=O	-8%	1.14
Cc1nc(C)c(C(=O)N2CC[C@]34C(=O)N(CC(=O)NCCCOc5cccc(c5)[C@H]23)c2ccccc24)s1	-9%	1.69
CC(C(=O)NCC1CCCO1)N(C)Cc1nccn1CC(F)(F)F (stereo unspecified)	-10%	1.52
COc1ccc(NC(=O)Cn2c(C)ccc2C)cc1N1CCCCS1(=O)=O	-11%	1.13
COc1ccc(S(=O)(=O)N2CCc3c(C(=O)NCc4ccncc4)cccc32)cc1	-17%	1.91
Cc1cc(C(=O)NC[C@@H]2COc3ccccc3C2)c(C)n1C	-11%	1.99
O=C(c1sccc1S(=O)(=O)N1CCCC1)N1CCc2sccc2C1	-4%	0.74

SMILES	% Inhibition	Z score
COc1ccc(CN2CCOC[C@H](O)C2)cc1	28%	-3.12
Cc1cccc2c1N(C(=O)Cc1ccc(S(N)(=O)=O)s1)CC2	4%	-0.47
CC(C)c1cncnc1N1CC(c2cccnc2)C1	-13%	1.24
C[C@@H](CN1CCc2ccccc2C1)NC(=O)c1cccc(-n2cnnc2)n1	0%	0.06
O[C@@H](CN(Cc1ccccc1)c1ncccn1)c1ccsc1	-8%	1.12
CCN(Cc1cnc2ccccn12)C(=O)Nc1ccc(C)c(C)c1	5%	-0.77
CC(C)(C)OC(=O)NCc1cc(C(=O)O)sc1Cl	-13%	2.44
Cc1cc(C)cc(-c2nc(-c3ccc4c(c3)ncn4CCC(=O)N3CCCC3)no2)c1	-12%	1.5
Cn1ncnc1CN(CCc1ccccc1)c1ccc(O)cc1	-9%	1.43
O=C(NC1CC2CCC1O2)N1CCCC1CC(O)c1ccco1 (stereo unspecified)	0%	0.03
CC(C)c1cnc(CNc2cccc(CO)c2)s1	9%	-1.12
COCCN(C)c1ccc(NCc2cccc3cn[nH]c23)nc1	-3%	0.56
CCCCCC1CCC(c2ccc(-c3nc(CCC)no3)cc2)CC1 (stereo unspecified)	0%	0
CC[C@H]1CN(S(=O)(=O)c2c(C)noc2C)CCO1	-3%	0.62
N#Cc1ccccc1-c1nc2ccc(-c3ccc(C(F)(F)F)cc3)cc2o1	-10%	1.48
O=C(NCCCN1CCCC1=O)C(=O)Nc1nccs1	-19%	2.97
O=S(=O)(Cc1cccc(F)c1)N1C2CCC1CC(Oc1cccnc1)C2 (stereo unspecified)	-9%	1
C[C@@H](C(=O)NC1(C(N)=O)CCCC1)n1ccnc1	-3%	0.36
COc1cc(CCNC(=O)N2CCCC3CN(C)CCC32)ccc1F (stereo unspecified)	-2%	0.22
CC(C)C(=O)Nc1cc2c(cc1S(=O)(=O)C1CCCCC1)n(C)c(=O)n2C	-10%	1.56
Cc1sc2ncnc(N3CC(n4cc(CO)nn4)C3)c2c1C	3%	-0.49

From ChEMBL document CHEMBL4888484, “Replenishing the malaria drug discovery pipeline: Screening and hit evaluation of the MMV Hit Generation Library 1 (HGL1) against asexual blood stage Plasmodium falciparum ,using a nano luciferase reporter read-out” (2022)
